Laboratory results reported in PMC4336329 (PLoS ONE, 2015).
Among all 310,000 compounds or so, about 14,000 (4.5%) showed an effect of 50% or more. The effect is printed as a negative number. This is one part of the list.

Target: human ether-à-go-go-related gene (hERG) potassium channel (human, UniProt Q12809)
Assay: primary screen, population patch clamp on CHO cells stably expressing hERG
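Further: peak tail current of the secondary pulse compared with the same well before compound.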

Chain of human ether-à-go-go-related gene (hERG) potassium channel (Q12809 whole entry, looked up): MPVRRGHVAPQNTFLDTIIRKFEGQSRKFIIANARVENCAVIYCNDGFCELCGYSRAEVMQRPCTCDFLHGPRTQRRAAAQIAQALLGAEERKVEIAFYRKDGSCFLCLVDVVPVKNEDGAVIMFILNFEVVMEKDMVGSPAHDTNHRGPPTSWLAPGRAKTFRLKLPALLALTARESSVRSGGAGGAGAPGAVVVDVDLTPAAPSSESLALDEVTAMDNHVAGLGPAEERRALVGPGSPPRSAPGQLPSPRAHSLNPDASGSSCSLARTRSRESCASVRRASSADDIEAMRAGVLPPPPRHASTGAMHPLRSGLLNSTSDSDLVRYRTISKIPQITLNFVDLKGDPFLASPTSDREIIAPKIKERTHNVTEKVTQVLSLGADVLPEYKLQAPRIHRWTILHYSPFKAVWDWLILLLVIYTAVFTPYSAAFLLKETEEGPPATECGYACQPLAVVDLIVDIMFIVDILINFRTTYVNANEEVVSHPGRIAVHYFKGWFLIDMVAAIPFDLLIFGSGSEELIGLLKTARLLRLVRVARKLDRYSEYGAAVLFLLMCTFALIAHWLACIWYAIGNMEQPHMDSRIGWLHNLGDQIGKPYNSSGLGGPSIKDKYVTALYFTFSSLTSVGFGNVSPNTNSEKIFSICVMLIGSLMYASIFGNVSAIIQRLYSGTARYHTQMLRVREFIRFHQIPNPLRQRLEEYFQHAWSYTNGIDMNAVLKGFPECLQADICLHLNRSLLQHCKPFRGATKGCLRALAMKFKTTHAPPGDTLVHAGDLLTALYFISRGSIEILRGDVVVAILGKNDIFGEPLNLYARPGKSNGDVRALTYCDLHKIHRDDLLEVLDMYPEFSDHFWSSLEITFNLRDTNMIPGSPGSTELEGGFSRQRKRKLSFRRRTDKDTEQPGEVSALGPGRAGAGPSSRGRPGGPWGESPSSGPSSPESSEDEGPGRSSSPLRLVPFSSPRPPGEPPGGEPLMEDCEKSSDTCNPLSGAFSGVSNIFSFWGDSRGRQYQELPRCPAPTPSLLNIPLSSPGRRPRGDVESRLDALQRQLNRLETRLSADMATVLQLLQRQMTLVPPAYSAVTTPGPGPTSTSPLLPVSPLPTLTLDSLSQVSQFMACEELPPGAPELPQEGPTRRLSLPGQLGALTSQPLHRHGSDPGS

SMILES	hERG current change (%, negative = inhibition) at 10uM [%]
O=C(NCC(=O)N1CCN(C/C=C/c2ccccc2)CC1)c1ccc(OC(F)F)cc1	-79.5
COc1cc(C(=O)Nc2nnc(S(=O)(=O)N3CCCCCC3)s2)cc(OC)c1OC	-25.9
O=[N+]([O-])c1ccc(CSc2nnc(Cc3ccccc3)o2)cc1	-11.1
CCOC(=O)c1ccc(S(=O)(=O)N2CCN(CCC#N)CC2)cc1	-14.7
CCOc1ccc(NC(=O)CC2C(=O)N(c3ccccc3)C(=S)N2Cc2ccccn2)cc1 (stereo not shown)	-14.1
COc1cccc(CN(C)C(=O)c2ccc(NS(=O)(=O)c3ccc4[nH]c(=O)[nH]c4c3)cc2)c1OC	6.28
CCN(CC)S(=O)(=O)c1cc(C(=O)Oc2cccc(-c3cnc4ccccc4n3)c2)ccc1OC	4.19
CCC(CC)C(=O)Nc1ccncc1	23.9
CCOC(=O)c1c(/N=C/C2C(=O)NC(=O)NC2=O)sc2c1CCC2	24.3
Cc1ccc(CS(=O)Cc2ccc(C(=O)N3CCOCC3)o2)cc1 (stereo not shown)	-33.3
CCCn1cc(S(=O)(=O)c2ccc(OC)cc2)c(=O)c2cc(OCC)ccc21	-15.3
OC(Cn1cncn1)(c1ccccc1)c1ccccc1	-6.81
N#Cc1c(-c2ccc(Cl)cc2)nc2n(c1=O)CCCS2	-9.38
CCCCS(=O)CC(CS(=O)CCCC)OC(=O)c1ccccc1 (stereo not shown)	-35.2
CC(C)(C)c1ccc(-c2noc(CCC(=O)NCC3CCCO3)n2)cc1 (stereo not shown)	-1.45
COc1ccc(S(=O)(=O)N(Cc2nc3ccccc3c(=O)[nH]2)C2CCCC2)cc1	-32
CCCc1nc2oc3c(NCCCN(C)C)ncnc3c2c2c1CCCC2	-3.16
O=C(c1ccccc1Sc1ccccc1[N+](=O)[O-])N1CCCCC1	-2.95
CCCCc1ccc(CC(=O)O)cc1	15.4
CC(=O)N1CCN(c2ccc(S(=O)(=O)NCCN(C(C)C)C(C)C)cc2[N+](=O)[O-])CC1	10.3
CCOc1ccc(C(C)=O)cc1COc1ccc(-n2cnnn2)cc1	-31.6
CCOC(=O)CNc1ccc(OC(F)(F)F)cc1	-3.87

SMILES	hERG current change (%, negative = inhibition) at 10uM [%]
COC(=O)c1cn(C(=O)/C=C/c2ccc(OC)c(OC)c2)c2ccccc12	15.3
Cc1ccc(C(CNS(=O)(=O)c2ccc(Br)cc2)N2CCN(C)CC2)cc1 (stereo not shown)	-72.4
COCCCNC(=O)CSc1nc2c(sc(=S)n2-c2cc(Cl)ccc2OC)c(=O)[nH]1	7.72
O=C(CNC(=O)c1ccccc1)NCc1ccc(Cl)cc1	18.8
COc1cc(/C=C/C(=O)OCC(=O)Nc2cccc(Oc3ccccc3)c2)ccc1O	-9.11
CC(=O)c1c(C)[nH]c(C(=O)OCC(=O)Nc2cc(S(=O)(=O)N3CCCC3)ccc2Cl)c1C	6.16
COc1ccc(CCNC(=O)C2Cc3ccccc3C(=O)O2)cc1 (stereo not shown)	-1.35
COc1cccc(NC(=O)c2nnn(Cc3ccc(Br)cc3F)c2N)c1	-2.79
CCOc1ccc(S(=O)(=O)N2CCC(C(=O)NC3CC3)CC2)cc1C	-0.852
Cn1c(=O)[nH]c(=O)c2c1nc(Sc1nc3ccccc3s1)n2Cc1ccccc1	-41.5
Cc1c(-n2c(O)c(C3=c4ccccc4=NC3=O)sc2=S)c(=O)n(-c2ccccc2)n1C	15.3
CCOC(=O)C1CCCN(Cc2nc(Cc3ccccc3Cl)no2)C1 (stereo not shown)	-14.1
Cc1cccc2c(=O)cc(C)n(Cc3ccccc3)c12	18.5
C[C@]1(C(=O)NCc2cc(F)cc(C(F)(F)F)c2)C=C[C@@H](Cc2ccccc2)N1C(=O)c1ccccc1	5.04
COc1ccccc1NC(=O)N1CCN(Cc2ccc3c(c2)OCO3)CC1.O=C(O)C(=O)O	13.3
CCSC1=NC(=O)/C(=C2/C=Cc3ccccc3N2CC)S1	8.33
COc1cc(OC)cc(-c2c(-c3cccs3)c3cc(-c4ccc5c(c4)OCCO5)ccc3n2C)c1	21.9
COC(=O)COc1ccccc1/C=C1/NC(=O)NC1=O	5.2
O=C(C1=C[C@@H](C2CCCCC2)C[C@@H](OCc2ccc(CO)cc2)O1)N1CCN(Cc2ccc3c(c2)OCO3)CC1	4.46
COc1cc(OC)cc(C2=NC3(CCC(C)CC3)NC2=S)c1 (stereo not shown)	-22.8
COC(=O)CSc1nc2ccccn2c(=O)c1C=O	13.2
COc1ccc(OC)c(Nc2nc(N)nc(-c3cc4ccccc4o3)n2)c1	1.24

SMILES	hERG current change (%, negative = inhibition) at 10uM [%]
CC(=O)c1cnc(Oc2cc(Cl)ccc2Cl)nc1C	0.763
Cc1cccc(OCC(=O)Nc2ccc3oc(=O)ccc3c2)c1C	18.3
CCOC(=O)C(CCCCCCC(NC(C)=O)(C(=O)OCC)C(=O)OCC)(NC(C)=O)C(=O)OCC	6.26
O=C(CN(c1ccc2c(c1)OCCO2)S(=O)(=O)c1ccccc1)Nc1ccc2c(c1)OCO2	3.6
O=C(Nc1ccc(Cn2ccnc2)cc1)c1cccc(C(F)(F)F)c1	2.5
Cc1ccc(O)c(Nc2c3ccccc3nc3ccccc23)c1	-52.8
O=C1CCC/C(=N\NC(=O)c2ccc(COc3cccc4cccnc34)cc2)C1	8.37
CCn1cc(CN2CCC(C(=O)Nc3cccc(-c4cccc(Cl)c4)c3)CC2)c(C)n1	-78.9
COc1ccc(OC)c(-n2nnnc2SCC(=O)N2CCN(C(=O)c3ccco3)CC2)c1	-18.5
NS(=O)(=O)c1cccn1-c1ncc(C(F)(F)F)cc1Cl	2.8
Cc1cccc(OCc2nnc(SCc3nc4ccccc4c(=O)[nH]3)o2)c1	9.1
CNS(=O)(=O)c1ccc2c3c(cccc13)C(=O)N2C	4.64
CN1CCC(NCCC(c2ccc(F)cc2)c2ccc(Cl)cc2)CC1 (stereo not shown)	-71.5
O=c1cc(N2CCCCCC2)[nH]c(=O)n1-c1ccc(Cl)cc1	12.3
Cc1cc(C)c(C(=O)/C=C/c2cccc3ccccc23)c(=O)[nH]1	-18.1
CCOc1ccc(NC(=O)CNC(=O)COc2ccccc2)cc1	4.67
NC1=NC(=O)/C(=C/c2cccc(-c3ccc(S(N)(=O)=O)cc3)c2)S1	-3.67
C#CCSc1nc(C)cc(C(=O)OCC)c1C#N	-9.19
Cn1c(SCC(=O)c2ccc(F)cc2)ncc(C(=O)Nc2ccccc2)c1=O	9.49
CCCn1c(SCC(=O)Nc2cccc(C)n2)nc2c1c(=O)n(C)c(=O)n2C	-40.9
CC(OC(=O)c1ccc2c(=O)n3c(nc2c1)CCCCC3)C(=O)Nc1ccc(Cl)cn1 (stereo not shown)	-9.54
COC(=O)c1sc(NC(=O)CSc2nc3cccnc3n2C)nc1C	-4

SMILES	hERG current change (%, negative = inhibition) at 10uM [%]
O=S(=O)(c1ccc(F)cc1)N1CCn2c(nc3ccccc32)C1	12.3
Cc1nc(Oc2ccccc2)c2ccsc2n1	-8.85
CN1CCC(N(C)C(=O)Cc2ccccc2[N+](=O)[O-])CC1	10.5
O=C(CCSCCc1ccccn1)Nc1cccc([N+](=O)[O-])c1	-31.3
O=C(/C=C/c1ccc(Cl)c(C(F)(F)F)c1)N1CCN(c2ccccn2)CC1	-16.5
Cc1[nH]nc(-c2ccc(OCc3cnn(-c4ccccc4)c3)cc2O)c1Oc1ccc(F)cc1	22.6
COC(=O)c1cc(NC(=O)c2cc(C(C)(C)C)nn2Cc2ccc(F)cc2)ccc1N1CCOCC1	-3.46
Cc1nc2ccc(N3C(=O)CCC3=O)cc2[nH]1	12.7
O=C(CN1CCC2(CC1)OCCO2)c1c[nH]c2ccccc12	3.65
Cc1cc(NC(=O)C(C)SCC(=O)Nc2ccccc2N2CCCC2)no1 (stereo not shown)	15.1
Cc1nc(COC(=O)c2c(C)nn(-c3ccccc3)c2C)cs1	-2.05
COc1ccc(CCNC(=O)c2cc3c(=O)n(C)c4ccccc4c3n2C)cc1OC	-7.82
Clc1ccc(OCc2nnc(-c3ccccc3Br)o2)cc1	2.44
O=C(Nc1cccc(O)c1)c1cc(-c2ccco2)on1	15.7
COc1cccc(CNC(=O)Cn2c(=O)oc3ccccc32)c1OC	5.28
Cn1c(=O)c2c(SCc3cccc(C(F)(F)F)c3)nc(-c3ccco3)nc2n(C)c1=O	-3.88
CCOC(=O)c1c(NC(=O)CSc2nc3cc(Cl)ccc3c(=O)n2Cc2ccco2)sc(C(=O)N(C)C)c1C	0.665
CCc1ccc2nc(Nc3nc(COC)cc(=O)[nH]3)nc(C)c2c1	-73.3
COn1c(=O)c(-c2cccs2)[n+]([O-])c2ccccc21	-5.83
